{"source": "the supplement of paper PMC3334620", "note": "Over roughly 33,000 sequences, “E-score (-0.5 to 0.5)” has its median near -0.035; the highest 2% begin near 0.34. This is one part of the list.", "data": [{"target": "T1, Mot3 (UniProt P54785)", "T1 sequence": "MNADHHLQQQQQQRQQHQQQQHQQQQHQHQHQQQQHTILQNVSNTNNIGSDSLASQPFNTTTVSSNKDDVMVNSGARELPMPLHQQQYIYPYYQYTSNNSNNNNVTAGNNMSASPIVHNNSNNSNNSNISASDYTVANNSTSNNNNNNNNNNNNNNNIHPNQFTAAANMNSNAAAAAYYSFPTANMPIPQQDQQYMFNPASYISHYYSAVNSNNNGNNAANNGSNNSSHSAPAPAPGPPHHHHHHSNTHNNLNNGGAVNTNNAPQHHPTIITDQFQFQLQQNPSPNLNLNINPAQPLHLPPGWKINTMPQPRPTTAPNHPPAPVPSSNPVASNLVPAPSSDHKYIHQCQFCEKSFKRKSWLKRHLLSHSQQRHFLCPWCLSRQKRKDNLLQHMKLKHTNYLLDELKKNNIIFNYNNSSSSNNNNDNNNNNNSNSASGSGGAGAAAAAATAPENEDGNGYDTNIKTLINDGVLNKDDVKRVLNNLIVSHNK", "assay": "PBM E-score (8-mer binding enrichment) (E-score (-0.5 to 0.5)); higher = stronger / more preferred TF binding; most listed sequences are background and not binding sites", "conditions": "protein concentration: 200 nM; construct: GST-full length", "experimental": "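Universal 'all 10-mer' protein binding microarrays (Agilent AMADID 015681) probed with GST-tagged S. cerevisiae TFs (full-length or DBD) made by in vitro transcription/translation (PURExpress), about 100-200 nM. Bound TF was detected with fluorescent anti-GST. Each ungapped 8-mer (which stands for itself and its reverse complement) is scored by the PBM enrichment score (E-score), a modified Wilcoxon-Mann-Whitney statistic from -0.5 to +0.5, computed with the Universal PBM Analysis Suite. Scale: above 0.35 generally sequence-specific binding.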", "values": [{"sequence": "AGAAAGCC", "PBM E-score": 0.0698}, {"sequence": "CGTTCTAC", "PBM E-score": 0.21}, {"sequence": "ACCCGCGG", "PBM E-score": -0.0296}, {"sequence": "CTCTCCTC", "PBM E-score": -0.284}, {"sequence": "GCTTACAA", "PBM E-score": 0.197}, {"sequence": "AGCCTCGA", "PBM E-score": -0.0725}, {"sequence": "AAAGGGAT", "PBM E-score": 0.0327}, {"sequence": "GATCGATC", "PBM E-score": -0.216}, {"sequence": "CACTCGAG", "PBM E-score": -0.185}, {"sequence": "GATGTGAC", "PBM E-score": -0.0219}, {"sequence": "CCTCCTCC", "PBM E-score": 0.0258}, {"sequence": "CCTGGAGA", "PBM E-score": -0.0102}, {"sequence": "GACATGGA", "PBM E-score": 0.167}, {"sequence": "CGGTGGAC", "PBM E-score": -0.174}, {"sequence": "ATGTACCA", "PBM E-score": 0.04}, {"sequence": "GCCAGCCA", "PBM E-score": -0.257}, {"sequence": "CAACTACA", "PBM E-score": 0.282}, {"sequence": "CCCTGGGA", "PBM E-score": -0.335}, {"sequence": "ATTACCAA", "PBM E-score": 0.239}, {"sequence": "CCGCTACA", "PBM E-score": 0.0172}, {"sequence": "AACATGCC", "PBM E-score": 0.328}, {"sequence": "GCAAGTCC", "PBM E-score": -0.0926}, {"sequence": "CTTAGTGA", "PBM E-score": -0.151}, {"sequence": "AGACCATA", "PBM E-score": -0.0935}, {"sequence": "CGAGCCGA", "PBM E-score": -0.187}, {"sequence": "ATGACTCC", "PBM E-score": -0.199}, {"sequence": "CTCGGGCA", "PBM E-score": 0.0219}, {"sequence": "GGTACCCA", "PBM E-score": 0.00798}, {"sequence": "AAGGGCCG", "PBM E-score": -0.111}, {"sequence": "CCAGGAGG", "PBM E-score": -0.129}, {"sequence": "CAGGCCAG", "PBM E-score": -0.141}, {"sequence": "GATGGTTA", "PBM E-score": -0.00133}, {"sequence": "CAGACAAG", "PBM E-score": -0.125}, {"sequence": "AAATCGAA", "PBM E-score": -0.103}, {"sequence": "ATCCGAGG", "PBM E-score": -0.0907}, {"sequence": "AGGTTGCA", "PBM E-score": 0.159}, {"sequence": "ATTAGAAG", "PBM E-score": -0.118}, {"sequence": "CAACAGAA", "PBM E-score": -0.0102}, {"sequence": "CATGTCAC", "PBM E-score": 0.225}, {"sequence": "ATACTGAG", "PBM E-score": 0.0691}, {"sequence": "TCCCCCGA", "PBM E-score": -0.341}, {"sequence": "AAAGGTAC", "PBM E-score": 0.42}, {"sequence": "AATCGATG", "PBM E-score": 0.15}, {"sequence": "CCAAAATA", "PBM E-score": 0.0955}, {"sequence": "ATGCGAAG", "PBM E-score": -0.00373}, {"sequence": "GAAAATAC", "PBM E-score": -0.0197}, {"sequence": "CGCCGAGC", "PBM E-score": -0.194}, {"sequence": "CCTTGTGC", "PBM E-score": 0.117}, {"sequence": "GAGGTTAC", "PBM E-score": 0.114}, {"sequence": "TGCCCCAA", "PBM E-score": -0.0519}, {"sequence": "CGTAGACA", "PBM E-score": 0.0145}, {"sequence": "ATTCAGCA", "PBM E-score": 0.00103}, {"sequence": "GGAGCCCC", "PBM E-score": -0.158}, {"sequence": "CAAAGAGC", "PBM E-score": -0.172}, {"sequence": "CTTTTCAA", "PBM E-score": 0.0982}, {"sequence": "CTGGTGGA", "PBM E-score": -0.0967}, {"sequence": "GGCGCCCA", "PBM E-score": -0.109}, {"sequence": "CCGTAAAG", "PBM E-score": 0.041}, {"sequence": "AAATCATG", "PBM E-score": 0.192}, {"sequence": "AAAGGGAA", "PBM E-score": 0.0778}, {"sequence": "CTAAATGC", "PBM E-score": -0.101}, {"sequence": "GGGGGAAA", "PBM E-score": -0.3}, {"sequence": "CGGGGTTC", "PBM E-score": -0.305}, {"sequence": "CAAATACG", "PBM E-score": 0.095}, {"sequence": "AACGAATG", "PBM E-score": 0.0901}, {"sequence": "CAGTATAC", "PBM E-score": 0.00052}, {"sequence": "CTCAACTC", "PBM E-score": -0.173}, {"sequence": "CCGGTCAC", "PBM E-score": -0.221}, {"sequence": "AGAAACTC", "PBM E-score": -0.0763}, {"sequence": "CCAACGGA", "PBM E-score": -0.26}, {"sequence": "ACCGCGTA", "PBM E-score": 0.28}, {"sequence": "AACGATCT", "PBM E-score": -0.111}, {"sequence": "ATACAGGA", "PBM E-score": 0.173}, {"sequence": "GCTACTCA", "PBM E-score": -0.175}, {"sequence": "AGCGCACT", "PBM E-score": -0.288}, {"sequence": "ACCATCGG", "PBM E-score": -0.284}, {"sequence": "CGAAGTGA", "PBM E-score": -0.0597}, {"sequence": "ACAAGTGA", "PBM E-score": 0.103}, {"sequence": "CACTAACC", "PBM E-score": 0.0279}, {"sequence": "GACACCCC", "PBM E-score": -0.251}, {"sequence": "AGGACAGC", "PBM E-score": -0.28}, {"sequence": "AGCGCGCC", "PBM E-score": -0.0957}, {"sequence": "ATGAGCAA", "PBM E-score": -0.0849}, {"sequence": "AAGACGAT", "PBM E-score": -0.0375}, {"sequence": "GCGTACTA", "PBM E-score": 0.199}, {"sequence": "ACTGTTAG", "PBM E-score": -0.0936}]}]}
